# Measured values: the supplement of paper PMC11876631
# ± gives the standard deviation of the averaged measurements. Laboratory Escherichia coli strains with one amino-acid change in an essential protein, pooled on minimal glucose agar with carbenicillin or gentamicin at twice the control MIC (plus kanamycin and chloramphenicol for the plasmids), 48 h. Fold change of barcode share against drug-free plates; higher = less susceptible. Active = above 20 in both replicates (the paper's putatively resistant). '<' = one read or none on drug, '>' = one read or none on a drug-free plate. Shares are relative, so most strains fall below 1 when a few take over. Listed are strains with at least 15 reads on both drug-free plates, and hits; most hits rest on fewer reference reads. Replicate rank correlation about 0.5. Edits are read from barcodes.
# Target: Escherichia coli (laboratory strain)
# Experiment: barcode share on antibiotic plates over drug-free plates; higher = less susceptible
# Method: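 A pool of E. coli strains, each edited to carry one amino-acid change in an essential protein, was grown for 48 h on minimal glucose agar with or without antibiotic; strain barcodes were sequenced; mean of two replicates.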
# [1] = antibiotic: carbenicillin, 2× MIC (3.1 µg/mL)
# [2] = antibiotic: gentamicin, 2× MIC (MIC 0.45 µg/mL)
Protein,fold change of barcode share [1],fold change of barcode share [2]
lolE F319A (protein) MAMPLSLLIGLRFSRGRRRGGMVSLISVISTIGIALGVAVLIVGLSAMNGFERELNNRILAVVPHGEIEAVDQPWTNWQEALDHVQKVPGIAAAAPYINFTGLVESGANLRAIQVKGVNPQQEQRLSALPSFVQGDAWRNFKAGEQQIIIGKGVADALKVKQGDWVSIMIPNSNPEHKLMQPKRVRLHVAGILQLSGQLDHSFAMIPLADAQQYLDMGSSVSGIALKMTDVFNANKLVRDAGEVTNSYVYIKSWIGTYGYMYRDIQMIRAIMYLAMVLVIGVACFNIVSTLVMAVKDKSGDIAVLRTLGAKDGLIRAIAVWYGLLAGLFGSLCGVIIGVVVSLQLTPIIEWIEKLIGHQFLSSDIYFIDFLPSELHWLDVFYVLVTALLLSLLASWYPARRASNIDPARVLSGQ,0.221 ± 0.055,< 0.0116
aroC V339Q (protein) MAGNTIGQLFRVTTFGESHGLALGCIVDGVPPGIPLTEADLQHDLDRRRPGTSRYTTQRREPDQVKILSGVFEGVTTGTSIGLLIENTDQRSQDYSAIKDVFRPGHADYTYEQKYGLRDYRGGGRSSARETAMRVAAGAIAKKYLAEKFGIEIRGCLTQMGDIPLDIKDWSQVEQNPFFCPDPDKIDALDELMRALKKEGDSIGAKVTVVASGVPAGLGEPVFDRLDADIAHALMSINAVKGVEIGDGFDVVALRGSQNRDEITKDGFQSNHAGGILGGISSGQQIIAHMALKPTSSITVPGRTINRFGEEVEMITKGRHDPCVGIRAVPIAEAMLAIQLMDHLLRQRAQNADVKTDIPRW,0.402 ± 0.16,
lolE L371A (protein) MAMPLSLLIGLRFSRGRRRGGMVSLISVISTIGIALGVAVLIVGLSAMNGFERELNNRILAVVPHGEIEAVDQPWTNWQEALDHVQKVPGIAAAAPYINFTGLVESGANLRAIQVKGVNPQQEQRLSALPSFVQGDAWRNFKAGEQQIIIGKGVADALKVKQGDWVSIMIPNSNPEHKLMQPKRVRLHVAGILQLSGQLDHSFAMIPLADAQQYLDMGSSVSGIALKMTDVFNANKLVRDAGEVTNSYVYIKSWIGTYGYMYRDIQMIRAIMYLAMVLVIGVACFNIVSTLVMAVKDKSGDIAVLRTLGAKDGLIRAIFVWYGLLAGLFGSLCGVIIGVVVSLQLTPIIEWIEKLIGHQFLSSDIYFIDFAPSELHWLDVFYVLVTALLLSLLASWYPARRASNIDPARVLSGQ,0.232 ± 0.057,0.788 ± 0.72
lolE L371W (protein) MAMPLSLLIGLRFSRGRRRGGMVSLISVISTIGIALGVAVLIVGLSAMNGFERELNNRILAVVPHGEIEAVDQPWTNWQEALDHVQKVPGIAAAAPYINFTGLVESGANLRAIQVKGVNPQQEQRLSALPSFVQGDAWRNFKAGEQQIIIGKGVADALKVKQGDWVSIMIPNSNPEHKLMQPKRVRLHVAGILQLSGQLDHSFAMIPLADAQQYLDMGSSVSGIALKMTDVFNANKLVRDAGEVTNSYVYIKSWIGTYGYMYRDIQMIRAIMYLAMVLVIGVACFNIVSTLVMAVKDKSGDIAVLRTLGAKDGLIRAIFVWYGLLAGLFGSLCGVIIGVVVSLQLTPIIEWIEKLIGHQFLSSDIYFIDFWPSELHWLDVFYVLVTALLLSLLASWYPARRASNIDPARVLSGQ,0.688 ± 0.083,0.00627 ± 0.0055
lolE L371Q (protein) MAMPLSLLIGLRFSRGRRRGGMVSLISVISTIGIALGVAVLIVGLSAMNGFERELNNRILAVVPHGEIEAVDQPWTNWQEALDHVQKVPGIAAAAPYINFTGLVESGANLRAIQVKGVNPQQEQRLSALPSFVQGDAWRNFKAGEQQIIIGKGVADALKVKQGDWVSIMIPNSNPEHKLMQPKRVRLHVAGILQLSGQLDHSFAMIPLADAQQYLDMGSSVSGIALKMTDVFNANKLVRDAGEVTNSYVYIKSWIGTYGYMYRDIQMIRAIMYLAMVLVIGVACFNIVSTLVMAVKDKSGDIAVLRTLGAKDGLIRAIFVWYGLLAGLFGSLCGVIIGVVVSLQLTPIIEWIEKLIGHQFLSSDIYFIDFQPSELHWLDVFYVLVTALLLSLLASWYPARRASNIDPARVLSGQ,0.155 ± 0.15,0.0234 ± 0.016
lolE L371P (protein) MAMPLSLLIGLRFSRGRRRGGMVSLISVISTIGIALGVAVLIVGLSAMNGFERELNNRILAVVPHGEIEAVDQPWTNWQEALDHVQKVPGIAAAAPYINFTGLVESGANLRAIQVKGVNPQQEQRLSALPSFVQGDAWRNFKAGEQQIIIGKGVADALKVKQGDWVSIMIPNSNPEHKLMQPKRVRLHVAGILQLSGQLDHSFAMIPLADAQQYLDMGSSVSGIALKMTDVFNANKLVRDAGEVTNSYVYIKSWIGTYGYMYRDIQMIRAIMYLAMVLVIGVACFNIVSTLVMAVKDKSGDIAVLRTLGAKDGLIRAIFVWYGLLAGLFGSLCGVIIGVVVSLQLTPIIEWIEKLIGHQFLSSDIYFIDFPPSELHWLDVFYVLVTALLLSLLASWYPARRASNIDPARVLSGQ,1.14 ± 0.91,< 0.00687
lptA V121A (protein) MKFKTNKLSLNLVLASSLLAASIPAFAVTGDTDQPIHIESDQQSLDMQGNVVTFTGNVIVTQGTIKINADKVVVTRPGGEQGKEVIDGYGKPATFYQMQDNGKPVEGHASQMHYELAKDFAVLTGNAYLQQVDSNIKGDKITYLVKEQKMQAFSDKGKRVTTVLVPSQLQDKNNKGQTPAQKKGN,0.273 ± 0.044,0.00589 ± 0.00036
lptA V121W (protein) MKFKTNKLSLNLVLASSLLAASIPAFAVTGDTDQPIHIESDQQSLDMQGNVVTFTGNVIVTQGTIKINADKVVVTRPGGEQGKEVIDGYGKPATFYQMQDNGKPVEGHASQMHYELAKDFWVLTGNAYLQQVDSNIKGDKITYLVKEQKMQAFSDKGKRVTTVLVPSQLQDKNNKGQTPAQKKGN,0.331 ± 0.098,0.00544 ± 0.0035
lptA V121Q (protein) MKFKTNKLSLNLVLASSLLAASIPAFAVTGDTDQPIHIESDQQSLDMQGNVVTFTGNVIVTQGTIKINADKVVVTRPGGEQGKEVIDGYGKPATFYQMQDNGKPVEGHASQMHYELAKDFQVLTGNAYLQQVDSNIKGDKITYLVKEQKMQAFSDKGKRVTTVLVPSQLQDKNNKGQTPAQKKGN,0.396 ± 0.068,0.0155 ± 0.017
lptA L123A (protein) MKFKTNKLSLNLVLASSLLAASIPAFAVTGDTDQPIHIESDQQSLDMQGNVVTFTGNVIVTQGTIKINADKVVVTRPGGEQGKEVIDGYGKPATFYQMQDNGKPVEGHASQMHYELAKDFVVATGNAYLQQVDSNIKGDKITYLVKEQKMQAFSDKGKRVTTVLVPSQLQDKNNKGQTPAQKKGN,0.253 ± 0.028,0.00352 ± 0.00067
lptA L123W (protein) MKFKTNKLSLNLVLASSLLAASIPAFAVTGDTDQPIHIESDQQSLDMQGNVVTFTGNVIVTQGTIKINADKVVVTRPGGEQGKEVIDGYGKPATFYQMQDNGKPVEGHASQMHYELAKDFVVWTGNAYLQQVDSNIKGDKITYLVKEQKMQAFSDKGKRVTTVLVPSQLQDKNNKGQTPAQKKGN,0.245 ± 0.03,0.00571 ± 0.0042
lptA L123Q (protein) MKFKTNKLSLNLVLASSLLAASIPAFAVTGDTDQPIHIESDQQSLDMQGNVVTFTGNVIVTQGTIKINADKVVVTRPGGEQGKEVIDGYGKPATFYQMQDNGKPVEGHASQMHYELAKDFVVQTGNAYLQQVDSNIKGDKITYLVKEQKMQAFSDKGKRVTTVLVPSQLQDKNNKGQTPAQKKGN,0.6973 ± 0.0036,0.00392 ± 0.0017
aroC V339P (protein) MAGNTIGQLFRVTTFGESHGLALGCIVDGVPPGIPLTEADLQHDLDRRRPGTSRYTTQRREPDQVKILSGVFEGVTTGTSIGLLIENTDQRSQDYSAIKDVFRPGHADYTYEQKYGLRDYRGGGRSSARETAMRVAAGAIAKKYLAEKFGIEIRGCLTQMGDIPLDIKDWSQVEQNPFFCPDPDKIDALDELMRALKKEGDSIGAKVTVVASGVPAGLGEPVFDRLDADIAHALMSINAVKGVEIGDGFDVVALRGSQNRDEITKDGFQSNHAGGILGGISSGQQIIAHMALKPTSSITVPGRTINRFGEEVEMITKGRHDPCVGIRAVPIAEAMLAIPLMDHLLRQRAQNADVKTDIPRW,1.2 ± 0.23,
lptA I38A (protein) MKFKTNKLSLNLVLASSLLAASIPAFAVTGDTDQPIHAESDQQSLDMQGNVVTFTGNVIVTQGTIKINADKVVVTRPGGEQGKEVIDGYGKPATFYQMQDNGKPVEGHASQMHYELAKDFVVLTGNAYLQQVDSNIKGDKITYLVKEQKMQAFSDKGKRVTTVLVPSQLQDKNNKGQTPAQKKGN,0.334 ± 0.14,0.0205 ± 0.0049
lptA L45A (protein) MKFKTNKLSLNLVLASSLLAASIPAFAVTGDTDQPIHIESDQQSADMQGNVVTFTGNVIVTQGTIKINADKVVVTRPGGEQGKEVIDGYGKPATFYQMQDNGKPVEGHASQMHYELAKDFVVLTGNAYLQQVDSNIKGDKITYLVKEQKMQAFSDKGKRVTTVLVPSQLQDKNNKGQTPAQKKGN,0.379 ± 0.014,
lptA L45W (protein) MKFKTNKLSLNLVLASSLLAASIPAFAVTGDTDQPIHIESDQQSWDMQGNVVTFTGNVIVTQGTIKINADKVVVTRPGGEQGKEVIDGYGKPATFYQMQDNGKPVEGHASQMHYELAKDFVVLTGNAYLQQVDSNIKGDKITYLVKEQKMQAFSDKGKRVTTVLVPSQLQDKNNKGQTPAQKKGN,0.52 ± 0.12,
